Measured values published in ChEMBL document CHEMBL4888484, “Replenishing the malaria drug discovery pipeline: Screening and hit evaluation of the MMV Hit Generation Library 1 (HGL1) against asexual blood stage Plasmodium falciparum ,using a nano luciferase reporter read-out” (2022).
In all, about 150,000 compounds went through this assay and about 540 (0.36%) showed an effect of 50% or more. Some of the results follow.

Test system: Plasmodium falciparum
Assay: Primary screen in NF54 nanoGlo assay, in single point, at 2uM, 72h; a lower Z score goes with more inhibition
Type: functional, Erythrocyte
Details: timepoint 72 hour

SMILES | % Inhibition | Z score
COc1ccc(CCNC(=O)c2cc(N3CCc4cc(OC)c(OC)cc4C3)nc3ccccc23)cc1OC | 5% | -0.56
CCNC(=O)N1CCCN(c2nc(CC(C)C)nc3onc(-c4cccc(C(F)(F)F)c4)c23)CC1 | 10% | -1.21
CN(Cc1ccc(C(F)(F)F)c(F)c1)Cc1ncon1 | -8% | 0.84
C[C@H](N)c1ccc(F)c(Br)c1 | 8% | -0.94
COC(=O)c1ccncc1C(=O)O[C@@H](C)C(=O)N(C)C | -14% | 1.21
CC(C)[C@@H]1NC2(CCN(S(=O)(=O)c3ccccc3)CC2)N(Cc2ccc(F)cc2)C1=O | -20% | 2.45
Cn1cnnc1C1CCN(c2cccc(F)c2C#N)CC1 | -10% | 1.27
O=C(c1cc2ccccc2o1)N1CCC[C@H](CN2CCCCCC2)C1 | -12% | 1.65
c1ccc(-c2nnn(Cc3nnc4ccccn34)n2)cc1 | 1% | -0.2
C1CCCC(NCC2(N3CCOCC3)CCCCC2)CC1 | 3% | -0.4
Cc1cc(N[C@H]2Cc3ccccc3[C@@H]2N)n2nccc2n1 | 15% | -2
C[C@H]1CCCN(C(=O)c2cnn(-c3ccccc3)n2)CC1 | -7% | 1.03
CCN(CC)S(=O)(=O)c1cccc(C(=O)Oc2ccc(-c3nnco3)cc2)c1 | -13% | 1.69
CS(=O)(=O)N1CCC(C(=O)Nc2ncn(Cc3ccc(Cl)cc3Cl)n2)CC1 | -32% | 3.78
Cn1cc(Cl)c(C(=O)Nc2ccc(Oc3nnn[nH]3)cc2)n1 | -11% | 1.57
CN(CC1CCCCO1)C(=O)CC1(c2ccccc2)CC(=O)N(Cc2cccs2)C1=O (stereo not drawn) | 11% | -1.5
Cc1ccc(S(=O)(=O)N2CCC3(CC2)NCCN=C3NCc2ccc3c(c2)OCO3)c(C)c1 | 2% | -0.26
CC(C)(C)c1ccncc1CNC(=O)c1ncc[nH]1 | -4% | 0.47
CCc1ccc(-c2cc(-c3nc(CC(N)=O)nn3C(C)(C)C)[nH]n2)cc1 | -15% | 2.99
O=C1C2C3CC4C(OC(C42)N1C1CCCCC1)C3O (stereo not drawn) | -10% | 1.24
CC(C)c1nnc(CN2CCCN(c3nc4ccccc4[nH]3)CC2)o1 | 0% | -0.03

SMILES | % Inhibition | Z score
CCNC(=O)N1CCc2nc(N3CCCCC3)nc(Oc3cccc(F)c3)c2C1 | -3% | 0.43
COc1nccc(C(=O)NCc2cc(C)c(O)c(C)c2)n1 | -2% | 0.35
CC(NC(=O)CN1CCCCC1Cn1cncn1)c1ccco1 (stereo not drawn) | -4% | 0.44
Cc1ccc(-c2onc3c2CCCC3)cc1NC(=O)CC1CCCC1 | -22% | 3.16
O=C(C1CCN(CN2C(=O)NC3(CCCCC3)C2=O)CC1)N1CCCCCC1 | -8% | 1.17
O=C(COc1ccc2nncn2n1)N1CCC[C@@]2(C=Cc3ccccc3O2)CC1 | 1% | -0.07
O=C1CCC(CN2CCOC[C@H]2c2ncnn2Cc2ccccc2)CC1 | -6% | 0.94
C[C@H]1Cc2cc(C(=O)NCCN3CCCCC3=O)ccc2O1 | -14% | 1.59
CC[C@]1(C(=O)O)CCCN(Cc2[nH]nc(C)c2Cl)C1 | -2% | 0.22
Cc1nnc2c3ccccc3nc(N3CCN(C(=O)C(C)C)CC3)n12 | -5% | 1
CC(=O)Nc1nnc(CCOC[C@H](C)OCCc2nnc(NC(C)=O)s2)s1 | -11% | 2.09
CCOc1ccc(NC(=O)c2ccnc(N3CCC(C(=O)NCc4ccc(OC)cc4)CC3)c2)cc1 | -14% | 2.1
CCN(CC)C(=O)c1ccc(COc2ccc3c(c2)[C@H](c2ccccc2)N(C(=O)C(C)(C)C)CC3)o1 | -17% | 1.54
CCN1CCc2nc(-c3ccc(F)cc3)n(CC(=O)Nc3ccccc3OC)c(=O)c2C1 | 1% | -0.08
COc1ccc(C(=O)Oc2ccc3nc(N(C)C)sc3c2)cc1 | 2% | -0.29
Cc1nonc1OCCNC(=O)COc1ccc(N(C)Cc2ccc(F)cc2)nn1 | -6% | 0.8
CCc1nnc(COc2cnc3ccccc3c2)o1 | -6% | 0.56
O=C(N[C@@H]1[C@@H]2CCO[C@@H]2[C@H]1N1CCCCC1)c1n[nH]c2c1CCC2 | -10% | 1.83
CCOc1cncc(CN2CC(CC3COCC(=O)N3)c3ccccc32)c1 (stereo not drawn) | -10% | 0.91
COCC[C@]1(NC(=O)c2ccc(F)cc2)CCN(Cc2ccccc2OC(C)C)C1 | 7% | -1.14
COc1ccc(CC2CCN(C(=O)c3c(C)noc3-c3ccc4c(c3)OCO4)CC2)cc1 | -10% | 1.4

SMILES | % Inhibition | Z score
COC(=O)c1ccc(NC(=O)NC2CCOC3(CCOC3)C2)cc1 (stereo not drawn) | 10% | -1.42
Cc1cc(CN(C)c2ncccc2C(=O)OC(C)C)no1 | 0% | -0.05
O=C(CCC1CCN(c2nccs2)CC1)Nc1ccc2c(c1)OCCO2 | -8% | 1.51
O=C(CNCC1CCCCC1)Nc1cc(S(=O)(=O)N2CCOCC2)ccc1N1CCOCC1 | 0% | -0.03
Cc1cc(Oc2ccc(NC(=O)c3cc[nH]n3)cc2)n[nH]1 | -22% | 1.92
Cc1nc(CC(=O)N2CCS(=O)(=O)CC2)cs1 | -12% | 2.28
COc1cccc(C(C(=O)O)N2CC(C)OC3(CCCCC3)C2)c1 (stereo not drawn) | 4% | -0.59
Cc1cccc(C(=O)Nc2ccc(N3CC[C@H](c4cccc(C)c4)C3)cc2C(=O)O)c1 | -6% | 1.08
CCN(c1cccc(C)c1)c1ncnc2c1cnn2-c1ccc(Cl)cc1C | 2% | -0.28
O=C(NCCO)NCCCc1ccc(Cl)cc1Cl | -7% | 1
O=C(NC[C@H]1CCCN(c2nccs2)C1)c1cc(-c2ccc(F)cc2)c[nH]1 | 19% | -2.46
CCCC(c1ccccn1)N(C)C(C)C(=O)Nc1cc(F)ccc1C (stereo not drawn) | 8% | -1.13
Cc1cccnc1[C@H](C)NS(=O)(=O)N1CCCC1 | 9% | -1.2
CC[C@](NC(=O)c1coc(C)c1)(C(=O)O)c1ccccc1 | 6% | -0.7
O=C(NCCOCC1CCOC1)C1(O)CC2CCC1C2 (stereo not drawn) | -7% | 1.21
CCn1c2ccccc2c2cc([C@H](C)NC(=O)c3cccc(Cl)c3)ccc21 | -3% | 0.37
CC1CN(CC(O)C(F)(F)F)CC(C)N1CC(O)C(F)(F)F (stereo not drawn) | -8% | 0.86
CC(C)(C)OC(=O)N1CCC[C@H](/C(N)=N/O)C1 | -17% | 1.92
CC1(CS(=O)(=O)N2CCO[C@@H](Cn3cccn3)C2)CCOCC1 | -7% | 0.93
CCN1C(=O)C[C@H](C(=O)NCC(C)(C)c2ccc(C)cn2)[C@H]1c1nccn1C | -3% | 0.49
Cn1cc(NC(=O)C(=O)NCC2(c3ccc(F)cc3F)CC2)cn1 | 30% | -0.15

SMILES | % Inhibition | Z score
COc1ccc(CC(=O)N[C@H]2CC(C)(C)Cc3c2cnn3-c2ccccc2C)cc1OC | -11% | 1.34
O=C1C[C@]2(C(=O)Nc3c(Cl)cccc32)c2cn[nH]c2N1 | -2% | 0.21
COc1ccc(C[C@@H]2C3=C(CCCC3)CCN2C(=O)c2ccnn2C)cc1 | -7% | 1.33
NC(=O)c1nsc2c(=O)n(CC(=O)NCc3ccccc3Cl)cnc12 | -5% | 0.91
O=C(c1ccccc1)N(CC1CCCO1)CC1CN(C(=O)c2ccccc2Cl)CCO1 (stereo not drawn) | -2% | 0.26
Cc1cc(NC(=O)[C@@H]2CCCc3ccccc32)nc(=O)[nH]1 | -6% | 0.7
O=C1N[C@H]2CC[C@@H]1CN(C(=O)c1ccc(-c3cccc4ccnn34)cc1)C2 | -8% | 1.31
O=C(c1nc2ccccc2s1)N1CC(c2nc(-c3ncccn3)no2)C1 | -4% | 0.73
O=C(c1csc2cncn12)N1CCn2nc(C3CC3)cc2C1 | -1% | 0.21
COc1ccc2c(C3CCN(C(C)=O)CC3)noc2c1 | 3% | -0.4
Cc1n[nH]cc1NC(=O)Nc1nccs1 | -3% | 0.37
COCCS(=O)(=O)Nc1c(F)cc(F)cc1Br | -8% | 0.8
Cc1n[nH]cc1CNC(=O)C1CC(=O)N(C)C1c1cccc(Cl)c1 (stereo not drawn) | -3% | 0.31
COc1cccc(-c2cc(C(=O)NCc3ccco3)c3cc(Br)cc(C)c3n2)c1 | -7% | 0.92
Cc1onc(N)c1S(=O)(=O)NCc1ccco1 | -21% | 1.83
Cc1nnsc1C(=O)NC[C@H]1CCCN(CC(C)C)C1 | -17% | 1.96
CCN(C(=O)c1cnc(C(=O)OC(C)(C)C)cn1)C1CCCC1 | 2% | -0.3
CCN=C(NCCCOCCOC)NCc1ccc(F)cc1 | -13% | 1.19
Cc1cc(C)n(CCN(C)CC(C)(C)CN2CCCC2)n1 | 10% | -1.26
O=C(CNC(=O)c1ccc(F)cc1F)Nc1ccc2nncn2c1 | 4% | -0.42
O=C1CN(C(=O)c2csc(C3CCCCC3)n2)c2ccncc2N1 | -3% | 0.4
